# Data reported in PubChem BioAssay AID686979 (National Center for Advancing Translational Sciences (NCATS), 2013).
# Values joined by “and” are separate entries in the source; they are usually repeats but may differ in a detail not shown here. Identical values can stand only once. Screen size: about 420,000 compounds; about 50,000 (12%) were called active. This list was built around the results that the source calls inconclusive (neither active nor inactive); the mix of calls is not that of the screen. The call rests on the fitted dose curve; in most records, active means well fitted inhibition curve with a large enough effect; inconclusive means small, poorly fitted or top-dose-only effect; inactive means flat fitted curve, though single readings scatter. Potencies beside an inconclusive call are fits to weak or partial responses and may not hold up.
# Assay: qHTS for Inhibitors of human tyrosyl-DNA phosphodiesterase 1 (TDP1): qHTS in cells in presence of CPT; further: nearly all actives have a fitted effect of over 55% in size
# Settings: chicken DT40 Tdp1-/-;hTDP1 cells + 20 nM CPT, ATP luminescence, 48 h; activity change, negative = growth inhibition: at 46.2 µM (top of the series)
# Method in brief: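 Chicken DT40 Tdp1-/- cells stably complemented with human TDP1 were seeded at 400 cells/well in medium containing 20 nM camptothecin, exposed to pin-transferred compounds, and grown at 37 °C for at least 48 hr. Viability was read as ATP luminescence.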
# On the % scale 0 is the no-effect control and ±100 the full control effect; potency means the concentration at half of the fitted maximal effect; tags describe the fitted curve by direction and shape.
SMILES,Potency,"activity change, negative = growth inhibition"
Cc1cc(-n2c(C)cc(C(=O)COc3ccc(Cl)cc3C(N)=O)c2C)no1,"inconclusive: 16.4 µM [inhibitor, partial curve]",
CN1CCN(S(=O)(=O)c2cccc(C(=O)Nc3ccc(Br)cc3Br)c2)CC1,"inconclusive: 20.6 µM [inhibitor, single point]",
CCc1nc2c(OCc3ccccc3OC)cccn2c1N(C)C(=O)C(C)C,"inconclusive: 29.1 µM [inhibitor, single point]",
Cc1cc(N2CCN(c3ccccc3)CC2)nc(N2CCOCC2)n1,"inconclusive: 29.1 µM [inhibitor, single point]",
C#CCOCCOCCOCCNc1nc(N2CCN(C(=O)[C@H](CCCCN)n3cc([C@@H](N)CO)nn3)CC2)nc(N2CCN(C(=O)[C@H](CCCCN)n3cc([C@@H](N)CC(C)C)nn3)CC2)n1,inactive,
CCOc1ccc(CCNC(=O)CCc2nnc3ccc(N4CCCCC4)nn23)cc1OCC,"inconclusive: 18.4 µM [inhibitor, single point]",
COc1cccc(CNc2cccc3cccnc23)c1O,"inconclusive: 9.2 µM [inhibitor, partial curve]",
O=C(c1ccc(-n2cccn2)cc1)N1CCc2ccccc2C1,"inconclusive: 11.6 µM [inhibitor, single point]",
Cc1cc(=O)c2c(O)c3c(O)cc(O)c4c5c(O)cc(O)c6c(O)c7c(=O)cc(C)c8c1c2c(c34)c(c65)c78,active: 16.4 µM,
CCc1ccc(NC(=O)CCS(=O)(=O)c2ccc(Cl)cc2)cc1,"inconclusive: 14.6 µM [inhibitor, partial curve, poor fit]",
O=C(NNC(=S)NC(=O)c1ccccc1[N+](=O)[O-])c1ccccc1,"inconclusive: 29.1 µM [inhibitor, single point]",
COc1cc(NC(=O)c2nnn(Cc3ccc(F)cc3)c2N)cc(OC)c1,,inconclusive: -33.4% [inhibitor]
COc1cc(C(=O)C(=O)N2CCN(c3ccc(C)cc3)CC2)cc2ccccc12,active: 14.6 µM,
CN(C)c1ccc(N=Nc2ccccc2C(=O)OCC(=O)NCC2CCCCC2)cc1,"inconclusive: 29.1 µM [inhibitor, single point]",
CCc1cc2c(=O)c(-c3cscn3)coc2c(CN(C)C)c1O,active: 1.46 µM,
O=C1c2[nH]nc(-c3ccccc3O)c2C(c2ccccc2F)N1Cc1ccco1 (stereo unspecified),"inconclusive: 29.1 µM [inhibitor, single point]",
COc1ccc(-c2cc(C(F)F)n3ncc(C(=O)Nc4cc(C)on4)c3n2)cc1,inactive,
CCCN1CCN(CC(=O)Nc2nncs2)CC1,inactive,
Brc1ccc(-c2nnc(-c3cccc(Br)c3)o2)cc1,inactive,
CN(C)N1C(=O)C2C3C=CC(O3)C2C1=O (stereo unspecified),inactive,
CN(Cc1ccccc1)C1CCCN(C(=O)c2ccc(Cl)s2)C1 (stereo unspecified),"inconclusive: 29.1 µM [inhibitor, single point]",

SMILES,Potency,"activity change, negative = growth inhibition"
Cc1cc(Cl)c(S(=O)(=O)N2CCN(c3ccccc3)CC2)cc1OCC(N)=O,inactive,
O=C(NC(c1ccc(F)cc1)c1ccc2ccccc2n1)C1CCN(CCOc2ccc(Cl)cc2Cl)CC1 (stereo unspecified),active: 16.4 µM,
CN(C1CCCCC1)S(=O)(=O)c1ccc(S(=O)(=O)N(CC(=O)Nc2ccccc2)C2CC2)cc1,"inconclusive: 18.4 µM [inhibitor, single point]",
CC(C)C[C@H]1CN([C@@H](CC(C)C)CN2CCC[C@H]2CN2C(=O)C(=O)NC[C@@H]2Cc2ccc(O)cc2)C(=O)C(=O)N1CC1CCCCC1,"inconclusive: 29.1 µM [inhibitor, single point]",
COc1ccccc1N(CC(=O)NC(C)(C)C)C(=O)c1ccc(Cl)nc1,"inconclusive: 29.1 µM [inhibitor, single point]",
Cc1cccc(Cn2c(N3CCc4ccccc4C3)nc3c2c(=O)[nH]c(=O)n3C)c1,"inconclusive: 16.4 µM [inhibitor, single point]",
CSC(=NC1CCCCC1)NS(=O)(=O)c1ccccc1,"inconclusive: 25.9 µM [inhibitor, single point] and inconclusive: 18.4 µM [inhibitor, partial curve]",
O=C1N/C(=N/O)S/C1=C/c1cccnc1,inactive,
CN(C)c1ccc(Nc2nc(N)c([N+](=O)[O-])c(N3CCOCC3)n2)cc1,"inconclusive: 20.6 µM [inhibitor, single point]",
Cc1ccccc1C(=O)N1CCC(c2nc3ccccc3s2)CC1,"inconclusive: 29.1 µM [inhibitor, single point]",
CNc1nc(C)c([N+](=O)[O-])c(Nc2ccc(OC)cc2)n1,"inconclusive: 18.4 µM [inhibitor, single point]",
Cn1c(=O)c2c(nc(NCCCN3CCOCC3)n2Cc2cccc(Cl)c2)n(C)c1=O,"inconclusive: 14.6 µM [inhibitor, partial curve, poor fit]",
O=C(CSCc1ccc([N+](=O)[O-])cc1)Nc1ccc(S(=O)(=O)N2CCCCCC2)cc1,"inconclusive: 29.1 µM [inhibitor, single point]",
CC(/C=C/c1ccc(O)cc1)=NNc1ccccc1,"inconclusive: 20.6 µM [inhibitor, single point]",
Cc1cc(CN(C)C(=O)c2ccc(OC3CCN(CCc4ccccc4)CC3)cc2)on1,"inconclusive: 16.4 µM [inhibitor, single point]",
O=C(NCCCc1nc2ccccc2n1Cc1ccccc1Cl)C1CCCCC1,active: 23.1 µM,
Cc1ccc(CS(=O)Cc2ccc(C(=O)N3CCN(c4ccccc4)CC3)o2)cc1 (stereo unspecified),active: 20.6 µM,
CC(=O)C1=C(OC(=O)C(C)C)c2ccccc2S(=O)(=O)N1Cc1ccccc1,"inconclusive: 20.6 µM [inhibitor, single point]",
Cc1ccc(S(=O)(=O)c2nc(S(=O)(=O)c3ccccc3)sc2N2CCN(CCO)CC2)cc1,"inconclusive: 25.9 µM [inhibitor, single point]",
OCC[C@H]1C[C@@H](O)[C@H](O)[C@@]2(CCc3ccccc3O2)O1,inactive,
